# The supplement of paper PMC8728848
# Some of the results follow.
# Tests used:
# Test in all cases: glycan array binding signal (z-score within array); higher = stronger binding
# Conditions in all cases: glycan notation: IUPAC condensed, linker removed
# [1] = target: Gal(b1-3)GlcNAc(b1-2)Man(a1-3)[Gal(b1-3)GlcNAc(b1-2)Man(a1-6)]Man(b1-4)GlcNAc(b1-4)[Fuc(a1-6)]GlcNAc
# Method in brief: (§1)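 From the Consortium for Functional Glycomics database, 3228 arrays were curated, keeping only those whose protein sequence was available. Binding is given as a within-array Z-score averaged across arrays sharing a protein sequence and across linkers. Negative Z-scores can be read as non-binding.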
# [2] = target: Gal(b1-3)GlcNAc(b1-2)Man(a1-3)[GlcNAc(b1-4)][Gal(b1-3)GlcNAc(b1-2)Man(a1-6)]Man(b1-4)GlcNAc(b1-4)GlcNAc
# Method in brief: as §1
# [3] = target: Gal(b1-3)GlcNAc(b1-2)[Gal(b1-3)GlcNAc(b1-6)]Man(a1-6)[Gal(b1-3)GlcNAc(b1-2)Man(a1-3)]Man(b1-4)GlcNAc(b1-4)GlcNAc
# Method in brief: as §1
# [4] = target: Gal(b1-3)GlcNAc(b1-3)Gal(b1-3)GlcNAc
# Method in brief: as §1
# [5] = target: Gal(b1-3)GlcNAc(b1-3)Gal(b1-4)Glc
# Method in brief: as §1
# [6] = target: Gal(b1-3)GlcNAc(b1-3)Gal(b1-4)GlcNAc
# Method in brief: as §1
# [7] = target: Gal(b1-3)GlcNAc(b1-3)Gal(b1-4)GlcNAc(b1-2)Man(a1-3)[Gal(b1-3)GlcNAc(b1-3)Gal(b1-4)GlcNAc(b1-2)Man(a1-6)]Man(b1-4)GlcNAc(b1-4)GlcNAc
# Method in brief: as §1
# [8] = target: Gal(b1-3)GlcNAc(b1-3)Gal(b1-4)GlcNAc(b1-2)[Gal(b1-3)GlcNAc(b1-3)Gal(b1-4)GlcNAc(b1-6)]Man(a1-6)[Gal(b1-3)GlcNAc(b1-3)Gal(b1-4)GlcNAc(b1-2)Man(a1-3)]Man(b1-4)GlcNAc(b1-4)[Fuc(a1-6)]GlcNAc
# Method in brief: as §1
# [9] = target: Gal(b1-3)GlcNAc(b1-3)Gal(b1-4)GlcNAc(b1-3)Gal(b1-4)GlcNAc(b1-2)[Gal(b1-3)GlcNAc(b1-3)Gal(b1-4)GlcNAc(b1-3)Gal(b1-4)GlcNAc(b1-6)]Man(a1-6)[Gal(b1-3)GlcNAc(b1-3)Gal(b1-4)GlcNAc(b1-3)Gal(b1-4)GlcNAc(b1-2)Man(a1-3)]Man(b1-4)GlcNAc(b1-4)[Fuc(a1-6)]GlcNAc
# Method in brief: as §1
# [10] = target: Gal(b1-3)GlcNAc(b1-3)Gal(b1-4)GlcNAc(b1-6)[Gal(b1-3)GlcNAc(b1-3)]Gal(b1-4)Glc
# Method in brief: as §1
# [11] = target: Gal(b1-3)GlcNAc(b1-3)Gal(b1-4)[Fuc(a1-3)]GlcNAc
# Method in brief: as §1
# [12] = target: Gal(b1-3)GlcNAc(b1-3)Gal(b1-4)[Fuc(a1-3)]GlcNAc(b1-6)[Gal(b1-3)GlcNAc(b1-3)]Gal(b1-4)Glc
# Method in brief: as §1
# [13] = target: Gal(b1-3)GlcNAc(b1-3)GalNAc
# Method in brief: as §1
# [14] = target: Gal(b1-3)GlcNAc(b1-6)Gal(b1-4)GlcNAc
# Method in brief: as §1
# [15] = target: Gal(b1-3)GlcNAc(b1-6)GalNAc
# Method in brief: as §1
# [16] = target: Gal(b1-3)GlcNAc(b1-6)[Gal(b1-3)]GalNAc
# Method in brief: as §1
# [17] = target: Gal(b1-3)GlcNAc6S
# Method in brief: as §1
# [18] = target: Gal(b1-3)[Fuc(a1-4)]GlcNAc
# Method in brief: as §1
# [19] = target: Gal(b1-3)[Fuc(a1-4)]GlcNAc(b1-2)Man
# Method in brief: as §1
# [20] = target: Gal(b1-3)[Fuc(a1-4)]GlcNAc(b1-2)Man(a1-3)[Gal(b1-3)[Fuc(a1-4)]GlcNAc(b1-2)Man(a1-6)]Man(b1-4)GlcNAc(b1-4)[Fuc(a1-6)]GlcNAc
# Method in brief: as §1
# [21] = target: Gal(b1-3)[Fuc(a1-4)]GlcNAc(b1-3)Gal(b1-3)[Fuc(a1-4)]GlcNAc
# Method in brief: as §1
# [22] = target: Gal(b1-3)[Fuc(a1-4)]GlcNAc(b1-3)Gal(b1-4)[Fuc(a1-3)]GlcNAc
# Method in brief: as §1
# [23] = target: Gal(b1-3)[Fuc(a1-4)]GlcNAc(b1-6)GalNAc
# Method in brief: as §1
# [24] = target: Gal(b1-3)[GlcNAc(b1-6)]GalNAc
# Method in brief: as §1
# [25] = target: Gal(b1-3)[Neu5Ac(a2-6)]GalNAc
# Method in brief: as §1
# [26] = target: Gal(b1-3)[Neu5Ac(a2-6)]GlcNAc(b1-4)Gal(b1-4)Glc
# Method in brief: as §1
# [27] = target: Gal(b1-3)[Neu5Ac(b2-6)]GalNAc
# Method in brief: as §1
# [28] = target: Gal(b1-4)Gal
# Method in brief: as §1
# [29] = target: Gal(b1-4)GalNAc(a1-3)[Fuc(a1-2)]Gal(b1-4)GlcNAc
# Method in brief: as §1
# [30] = target: Gal(b1-4)GalNAc(b1-3)[Fuc(a1-2)]Gal(b1-4)GlcNAc
# Method in brief: as §1
# [31] = target: Gal(b1-4)Glc
# Method in brief: as §1
# [32] = target: Gal(b1-4)Glc6S
# Method in brief: as §1
# [33] = target: Gal(b1-4)GlcNAc
# Method in brief: as §1
# [34] = target: Gal(b1-4)GlcNAc(a1-6)Gal(b1-4)GlcNAc
# Method in brief: as §1
# [35] = target: Gal(b1-4)GlcNAc(b1-2)Man
# Method in brief: as §1
# [36] = target: Gal(b1-4)GlcNAc(b1-2)Man(a1-3)Man(b1-4)GlcNAc(b1-4)GlcNAc
# Method in brief: as §1
# [37] = target: Gal(b1-4)GlcNAc(b1-2)Man(a1-3)[Gal(b1-4)GlcNAc(b1-2)Man(a1-6)]Man(b1-4)GlcNAc(b1-4)GlcNAc
# Method in brief: as §1
# [38] = target: Gal(b1-4)GlcNAc(b1-2)Man(a1-3)[Gal(b1-4)GlcNAc(b1-2)Man(a1-6)]Man(b1-4)GlcNAc(b1-4)[Fuc(a1-6)]GlcNAc
# Method in brief: as §1
# [39] = target: Gal(b1-4)GlcNAc(b1-2)Man(a1-3)[Gal(b1-4)GlcNAc(b1-2)Man(a1-6)][Gal(b1-4)GlcNAc(b1-4)]Man(b1-4)GlcNAc(b1-4)[Fuc(a1-6)]GlcNAc
# Method in brief: as §1
# [40] = target: Gal(b1-4)GlcNAc(b1-2)Man(a1-3)[Gal(b1-4)GlcNAc(b1-2)Man(a1-6)][GlcNAc(b1-4)]Man(b1-4)GlcNAc(b1-4)[Fuc(a1-6)]GlcNAc
# Method in brief: as §1
# [41] = target: Gal(b1-4)GlcNAc(b1-2)Man(a1-3)[GlcNAc(b1-2)Man(a1-6)]Man(b1-4)GlcNAc(b1-4)GlcNAc
# Method in brief: as §1
# [42] = target: Gal(b1-4)GlcNAc(b1-2)Man(a1-3)[GlcNAc(b1-4)][Gal(b1-4)GlcNAc(b1-2)Man(a1-6)]Man(b1-4)GlcNAc(b1-4)GlcNAc
# Method in brief: as §1
# [43] = target: Gal(b1-4)GlcNAc(b1-2)Man(a1-3)[Man(a1-6)]Man(b1-4)GlcNAc(b1-4)GlcNAc
# Method in brief: as §1
# [44] = target: Gal(b1-4)GlcNAc(b1-2)Man(a1-6)Man(b1-4)GlcNAc(b1-4)GlcNAc
# Method in brief: as §1
# [45] = target: Gal(b1-4)GlcNAc(b1-2)Man(a1-6)[GlcNAc(b1-2)Man(a1-3)]Man(b1-4)GlcNAc(b1-4)GlcNAc
# Method in brief: as §1
binder,measurement,setting,value
EULS2 M2 (Oryza sativa) (protein) MVYCRANPNYAMTARNGAVVLAPANPKDEYQHWIKDMRWSTSIKDEEGYPAFALVNKATGQAIKHSLGQSHPVRLVPYNPEVMDESVLWTESRDVGNGFRCIRMVNNIYLNFDAFHGDKYHGGVRDGTDIVLWKLCEGDSQRWKIQPYYILEQKLISEEDLNSAVDHHHHHH,glycan array binding signal (z-score),[1],0.015
same,glycan array binding signal (z-score),[2],-0.347
same,glycan array binding signal (z-score),[3],-0.336
same,glycan array binding signal (z-score),[4],0.437
same,glycan array binding signal (z-score),[5],-0.574
same,glycan array binding signal (z-score),[6],-0.483
same,glycan array binding signal (z-score),[7],-0.265
same,glycan array binding signal (z-score),[8],0.657
same,glycan array binding signal (z-score),[9],-1.02
same,glycan array binding signal (z-score),[10],-0.505
same,glycan array binding signal (z-score),[11],-0.526
same,glycan array binding signal (z-score),[12],-0.897
same,glycan array binding signal (z-score),[13],-0.34
same,glycan array binding signal (z-score),[14],0.228
same,glycan array binding signal (z-score),[15],-0.277
same,glycan array binding signal (z-score),[16],-0.31
same,glycan array binding signal (z-score),[17],-0.282
same,glycan array binding signal (z-score),[18],-0.139
same,glycan array binding signal (z-score),[19],0.439
same,glycan array binding signal (z-score),[20],0.253
same,glycan array binding signal (z-score),[21],-0.418
same,glycan array binding signal (z-score),[22],-0.086
same,glycan array binding signal (z-score),[23],-0.451
same,glycan array binding signal (z-score),[24],-0.483
same,glycan array binding signal (z-score),[25],-0.427
same,glycan array binding signal (z-score),[26],-0.167
same,glycan array binding signal (z-score),[27],-0.425
same,glycan array binding signal (z-score),[28],-0.094
same,glycan array binding signal (z-score),[29],-0.48
same,glycan array binding signal (z-score),[30],-0.291
same,glycan array binding signal (z-score),[31],-0.454
same,glycan array binding signal (z-score),[32],1.14
same,glycan array binding signal (z-score),[33],-0.531
same,glycan array binding signal (z-score),[34],-0.38
same,glycan array binding signal (z-score),[35],-0.43
same,glycan array binding signal (z-score),[36],0.321
same,glycan array binding signal (z-score),[37],0.132
same,glycan array binding signal (z-score),[38],-0.102
same,glycan array binding signal (z-score),[39],0.393
same,glycan array binding signal (z-score),[40],0.853
same,glycan array binding signal (z-score),[41],-0.355
same,glycan array binding signal (z-score),[42],0.091
same,glycan array binding signal (z-score),[43],0.185
same,glycan array binding signal (z-score),[44],-0.754
same,glycan array binding signal (z-score),[45],-0.086
